Our source for the enrichment ratio values is a collection of fitness landscapes (doi:10.1126/science.1257360).

Some of the results follow.

Sequences and labels used below:
B1: PhoQ; a variant is named by its letters at X, in order, P23837 (parent)
chain: MKKLLRLFFPLSLRVRFLLATAAVVLVLSLAYGMVALIGYSVSFDKTTFRLLRGESNLFYTLAKWENNKLHVELPENIDKQSPTMTLIYDENGQLLWAQRDVPWLMKMIQPDWLKSNGFHEIEADVNDTSLLLSGDHSIQQQLQEVREDDDDAEMTHSVAVNVYPATSRMPKLTIVVVDTIPVELKSSYMVWSWFIYVLSANLLLVIPLLWVAAWWSLRPIEALAKEVRELEEHNRELLNPATTRELTSLVRNLNRLLKSERERYDKYRTTLTDLTHSLKTPLXXLQXXLRSLRSEKMSVSDAEPVMLEQISRISQQIGYYLHRASMRGGTLLSRELHPVAPLLDNLTSALNKVYQRKGVNISLDISPEISFVGEQNDFVEVMGNVLDNACKYCLEFVEISARQTDEHLYIVVEDDGPGIPLSKREVIFDRGQRVDTLRPGQGVGLAVAREITEQYEGKIVAGESMLGGARMEVIFGRQHSAPKDE

This test covers variants of B1. Briefly: enrichment ratio after two sorts for PhoP signalling (ratio (wild type AVST 3.29)); higher = more functional. The conditions noted are these: with PhoP (E. coli).
Take LMKQ: the enrichment ratio was not above 0.25.

Consider YWPC, for which the enrichment ratio was not above 0.25.

Take YIRW: the enrichment ratio is not above 0.25.

Regarding YMAN, the enrichment ratio was 0.263.

For TLCN, the enrichment ratio turned out to be 2.3.

In the case of YQQI, the enrichment ratio is not above 0.25.

In the case of GNTL, the enrichment ratio stood at 6.85.

In the case of RQTL, the enrichment ratio was not above 0.25.

Consider RFVC, for which the enrichment ratio is not above 0.25.

On to PNYL, for which the enrichment ratio was not above 0.25.

For the variant RMQV, the enrichment ratio is not above 0.25.

For the variant NTTF, the enrichment ratio is not above 0.25.

As for TNCC, the enrichment ratio stood at 2.69.

Turning to GEIF, the enrichment ratio is not above 0.25.

For the variant GICA, the enrichment ratio turned out to be 11.2.

In the case of DEQS, the enrichment ratio was not above 0.25.

In the case of AEMP, the enrichment ratio was not above 0.25.

In the case of QITQ, the enrichment ratio was not above 0.25.

On to PAFA, for which the enrichment ratio is not above 0.25.

Consider FENE, for which the enrichment ratio was not above 0.25.

Consider LFYA, for which the enrichment ratio was not above 0.25.

Take AGVE: the enrichment ratio is not above 0.25.

On to YVGL, for which the enrichment ratio is not above 0.25.

For the variant EYEQ, the enrichment ratio is not above 0.25.

For the variant HSDP, the enrichment ratio is not above 0.25.

Consider DRHP, for which the enrichment ratio was not above 0.25.

As for WDHN, the enrichment ratio is not above 0.25.

As to TGDN, the enrichment ratio is not above 0.25.

For the variant DIGT, the enrichment ratio was not above 0.25.

In the case of KVPG, the enrichment ratio is not above 0.25.

For ADLF, the enrichment ratio is not above 0.25.

For the variant NGCP, the enrichment ratio is not above 0.25.

Consider WHMN, for which the enrichment ratio was not above 0.25.

On to PMYA, for which the enrichment ratio is not above 0.25.

Consider GYVT, for which the enrichment ratio was not above 0.25.

Regarding PNLL, the enrichment ratio was not above 0.25.

For SQQK, the enrichment ratio is not above 0.25.

NQKC: the enrichment ratio was not above 0.25.

Take QTTM: the enrichment ratio is not above 0.25.

As for LACS, the enrichment ratio was not above 0.25.

Turning to QRHI, the enrichment ratio is not above 0.25.

Consider GHTR, for which the enrichment ratio is not above 0.25.

ADFH: the enrichment ratio is not above 0.25.

Turning to GVDT, the enrichment ratio is not above 0.25.

As for HGMG, the enrichment ratio is not above 0.25.

Consider IGMQ, for which the enrichment ratio was not above 0.25.

For the variant WGRQ, the enrichment ratio was not above 0.25.

As to LKNS, the enrichment ratio was not above 0.25.

ERMW: the enrichment ratio is not above 0.25.

Regarding DFIH, the enrichment ratio is not above 0.25.

For the variant ARYY, the enrichment ratio was not above 0.25.

For IDEY, the enrichment ratio is not above 0.25.

NCEF: the enrichment ratio is not above 0.25.

As for IGDK, the enrichment ratio was not above 0.25.

In the case of IMCG, the enrichment ratio was not above 0.25.

As for LFKT, the enrichment ratio was not above 0.25.

Consider PLPE, for which the enrichment ratio was not above 0.25.

In the case of QHHP, the enrichment ratio is not above 0.25.

As to QRIQ, the enrichment ratio is not above 0.25.

On to AEFK, for which the enrichment ratio is not above 0.25.

Turning to KCTV, the enrichment ratio was not above 0.25.

With DRRG, the enrichment ratio was not above 0.25.

In the case of DVWV, the enrichment ratio was not above 0.25.

Regarding YCNK, the enrichment ratio was not above 0.25.

Regarding EEAN, the enrichment ratio is not above 0.25.

Regarding YRKF, the enrichment ratio was not above 0.25.

As for FSGN, the enrichment ratio is not above 0.25.

For the variant RFTM, the enrichment ratio is not above 0.25.

In the case of GVGY, the enrichment ratio is not above 0.25.

Turning to LIGF, the enrichment ratio is not above 0.25.

Consider QCFL, for which the enrichment ratio is not above 0.25.

On to RINQ, for which the enrichment ratio is not above 0.25.

Consider WPIP, for which the enrichment ratio is not above 0.25.

On to HWHM, for which the enrichment ratio was not above 0.25.

As for NNEL, the enrichment ratio is not above 0.25.

Regarding SLQR, the enrichment ratio is not above 0.25.

Regarding LDNF, the enrichment ratio is not above 0.25.

As for QLSS, the enrichment ratio was 0.318.

Turning to WSDY, the enrichment ratio is not above 0.25.

In the case of WEEI, the enrichment ratio is not above 0.25.

For the variant QANW, the enrichment ratio is not above 0.25.

On to LTLF, for which the enrichment ratio was 0.632.

Turning to WGVW, the enrichment ratio is not above 0.25.

On to FGDQ, for which the enrichment ratio was not above 0.25.

Turning to ICKM, the enrichment ratio is not above 0.25.

In the case of QWAC, the enrichment ratio is not above 0.25.

With PYNC, the enrichment ratio was not above 0.25.

In the case of ACLG, the enrichment ratio was determined as 8.84.

For PCFR, the enrichment ratio is not above 0.25.

Regarding WVKF, the enrichment ratio is not above 0.25.

For SDMG, the enrichment ratio amounted to 7.99.

For the variant QQHK, the enrichment ratio is not above 0.25.

Turning to DMCP, the enrichment ratio was not above 0.25.

As for ICGY, the enrichment ratio was not above 0.25.

IRIN: the enrichment ratio is not above 0.25.

As for WHMY, the enrichment ratio was not above 0.25.

In the case of PKWR, the enrichment ratio is not above 0.25.

Consider MIPH, for which the enrichment ratio was not above 0.25.

Regarding YLGM, the enrichment ratio is not above 0.25.

Regarding SDIG, the enrichment ratio was not above 0.25.

Take WGYL: the enrichment ratio is not above 0.25.

In the case of TLWR, the enrichment ratio was not above 0.25.

As to YGLI, the enrichment ratio came out at 2.27.

With MDQW, the enrichment ratio is not above 0.25.

For QMAV, the enrichment ratio was not above 0.25.

For the variant ITMR, the enrichment ratio is not above 0.25.

For the variant FYHL, the enrichment ratio is not above 0.25.

For IRQF, the enrichment ratio was not above 0.25.

Consider GMNR, for which the enrichment ratio is not above 0.25.

On to MSCR, for which the enrichment ratio was not above 0.25.

As for LFSD, the enrichment ratio was not above 0.25.

For the variant FHPM, the enrichment ratio was not above 0.25.

With YWDT, the enrichment ratio is not above 0.25.

FKVF: the enrichment ratio was not above 0.25.

Consider AMIA, for which the enrichment ratio is not above 0.25.

For the variant IREL, the enrichment ratio was not above 0.25.

Consider EQKL, for which the enrichment ratio is not above 0.25.

As for MEIV, the enrichment ratio is 6.05.

Regarding DEVE, the enrichment ratio was not above 0.25.

As for RSNE, the enrichment ratio is not above 0.25.

Regarding PQGR, the enrichment ratio is not above 0.25.
